Test results from PMC5821125 (Cell reports, 2017).

Target: T1, FGFR1c ligand-binding domain (UniProt P11362 142-365)
T1 sequence (looked up): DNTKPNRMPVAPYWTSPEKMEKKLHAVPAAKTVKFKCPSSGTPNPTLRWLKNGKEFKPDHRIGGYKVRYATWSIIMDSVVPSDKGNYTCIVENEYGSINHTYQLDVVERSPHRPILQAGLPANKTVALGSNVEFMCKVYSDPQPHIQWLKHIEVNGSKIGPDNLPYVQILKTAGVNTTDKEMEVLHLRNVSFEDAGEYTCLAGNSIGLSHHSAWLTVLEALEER
Experiment: SEC-MALS

B1: wild-type FGF1 (fibroblast growth factor 1) (ligand)
chain: not shown
stoichiometry N: 1
